The supplement of paper PMC4967469
The IC50 comes from the fitted curve, where viability falls to half of the control; a limit (>, <) means that the fit lies beyond the doses tested. AUC, from the same fit, is the share of area under the viability curve across the 256-fold dose range; it is 1 without any effect and falls as sensitivity rises. For part of these data: Where the top dose is marked as inferred, it comes from the curve model; the source does not state it. For part of these data: An entry number marks a drug with two screens in the source, which often give different values.

What was measured:
Assay in all cases: Viability of human cancer cell lines after 72 h of drug (GDSC screen)
[1] = compound: C/C=C(/C)C(=O)O[C@H]1C(C)=C2[C@H]([C@@H]1OC(=O)CCCCCCC)[C@@](C)(OC(C)=O)C[C@H](OC(=O)CCC)[C@@]1(O)[C@H]2OC(=O)[C@@]1(C)O [Thapsigargin]; details: top dose 0.512 µM; top dose inferred
Protocol: (§1)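 Human cancer cell lines in 384-well plates, medium with 10% serum, drug for 72 h over a 256-fold dose range (nine 2-fold or five 4-fold steps up to the top dose). Adherent lines were fixed and stained with the nucleic acid dye Syto60, suspension lines read with resazurin; signal relative to control wells, capped at 0 and 100%. One two-parameter sigmoid per drug and line, fitted in a mixed model over all curves with the slope shared within a line.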

[2] = compound: C=CC(=O)Nc1cc(-n2c(=O)ccc3cnc4ccc(-c5cn[nH]c5)cc4c32)ccc1C [QL-X-138]; details: top dose 10.24 µM; top dose inferred
Protocol: as §1

[3] = compound: CCn1c(-c2nonc2N)nc2cnc(Oc3cccc(NC(=O)c4ccc(OCCN5CCOCC5)cc4)c3)cc21 [GSK269962A]; details: top dose inferred
Protocol: as §1

[4] = compound: COc1cc(N2CCC(O)CC2)ccc1Nc1cc(Nc2ccccc2S(=O)(=O)C(C)C)c2cc[nH]c2n1 [MPS-1-IN-1]; details: top dose 20 µM; top dose inferred
Protocol: as §1

[5] = compound: COc1cc(O)c2c(c1)/C=C/C[C@H](O)[C@H](O)C(=O)/C=C\C[C@H](C)OC2=O [(5Z)-7-Oxozeaenol]; details: top dose 10 µM; top dose inferred
Protocol: as §1

[6] = compound: COc1cc2ncnc(-n3nc(-c4ccccn4)nc3N)c2cc1OC [CP466722]; details: top dose 16 µM; top dose inferred
Protocol: as §1

[7] = compound: COc1nc(C)cnc1NS(=O)(=O)c1cccnc1-c1ccc(-c2nnco2)cc1 [Zibotentan]; details: top dose 20 µM; top dose inferred
Protocol: as §1

[8] = compound: Cc1ccc(-c2c(C(=O)CCl)n(CCCO)c3ncnc(N)c23)cc1 [CMK]; details: top dose 4 µM; top dose inferred
Protocol: as §1

[9] = compound: Cc1ccc(F)c(NC(=O)Nc2ccc(-c3cccc4[nH]nc(N)c34)cc2)c1 [ABT-869]; details: top dose 1.024 µM; top dose inferred
Protocol: as §1

[10] = compound: Cc1cnc(-c2cnc(NCCNc3ccc(C#N)cn3)nc2-c2ccc(Cl)cc2Cl)[nH]1 [CHIR-99021]
Protocol: as §1

[11] = compound: O=c1cc(-c2cccc3c2Sc2ccccc2S3)oc(N2CCOCC2)c1 [KU-55933]; details: top dose 10 µM
Protocol: as §1

[12] = compound: C[C@]1(c2nc3c(C(N)=O)cccc3[nH]2)CCCN1 [ABT-888]; details: top dose 5 µM; top dose inferred
Protocol: as §1

[13] = top dose 2.5 µM, screen: GDSC drug entry 127
[14] = top dose 5 µM, screen: GDSC drug entry 1192
[15] = top dose 2.56 µM, screen: GDSC drug entry 154
[16] = top dose 10 µM, screen: GDSC drug entry 1241, top dose inferred

Cell Line	AUC [1]	IC50 [1] [µM]	AUC [2]	IC50 [2] [µM]	AUC [3, 13]	IC50 [3, 13] [µM]	AUC [3, 14]	IC50 [3, 14] [µM]	AUC [4]	IC50 [4] [µM]	AUC [5]	IC50 [5] [µM]	AUC [6]	IC50 [6] [µM]	AUC [7]	IC50 [7] [µM]	AUC [8]	IC50 [8] [µM]	AUC [9]	IC50 [9] [µM]	AUC [10, 15]	IC50 [10, 15] [µM]	AUC [10, 16]	IC50 [10, 16] [µM]	AUC [11]	IC50 [11] [µM]	AUC [12]	IC50 [12] [µM]
ES3 (Ewing sarcoma, adherent)	0.317	0.00957	0.502	0.649	0.973	> 2.5	0.783	2.22	0.804	10.6	0.787	4.6	0.742	5.13	0.983	> 20	0.96	> 4	0.983	> 1.02	0.981	> 2.56	0.825	6.44	0.928	> 10	–	–
H-EMC-SS (chondrosarcoma, adherent)	0.348	0.0106	0.781	5.59	0.938	> 2.5	–	–	0.727	6.81	–	–	0.757	7.05	0.969	> 20	0.928	> 4	0.972	> 1.02	0.97	> 2.56	–	–	0.981	> 10	–	–
HT-144 (melanoma, adherent)	0.17	0.00273	0.978	> 10.2	0.885	> 2.5	0.885	> 5	0.959	> 20	0.232	0.0933	0.978	> 16	0.982	> 20	0.777	1.8	0.974	> 1.02	0.964	> 2.56	0.851	9.03	0.963	> 10	–	–
JAR (urogenital system, adherent)	0.986	> 0.512	0.777	4.01	0.937	> 2.5	0.761	1.74	0.968	> 20	0.695	2.18	0.66	2.76	0.986	> 20	0.887	> 4	0.988	> 1.02	0.988	> 2.56	0.909	> 10	0.977	> 10	–	–
KASUMI-1 (acute myeloid leukaemia, suspension)	–	–	0.436	0.428	0.985	> 2.5	0.485	0.284	–	–	0.41	0.353	0.263	0.21	–	–	0.918	> 4	0.292	0.0165	0.959	> 2.56	0.842	7.08	–	–	0.97	> 5
KG-1 (acute myeloid leukaemia, suspension)	0.624	–	0.572	0.982	0.955	> 2.5	0.812	2.33	0.923	> 20	0.451	0.467	0.675	2.9	0.99	> 20	0.974	> 4	0.909	> 1.02	0.99	> 2.56	0.989	> 10	0.977	> 10	–	–
LB996-RCC (kidney, adherent)	0.51	0.0342	0.965	> 10.2	0.9	> 2.5	0.766	2.13	0.981	> 20	0.749	3.71	0.967	> 16	0.983	> 20	0.981	> 4	0.976	> 1.02	0.912	> 2.56	0.738	3.39	0.979	> 10	–	–
LC-2-ad (lung adenocarcinoma, adherent)	0.207	0.00427	0.706	2.48	0.97	> 2.5	0.911	> 5	0.827	12.7	0.841	7.23	0.691	3.47	0.973	> 20	0.741	1.25	0.948	> 1.02	0.985	> 2.56	0.928	> 10	0.953	> 10	–	–
LNCaP-Clone-FGC (prostate, adherent)	0.526	0.038	0.463	0.5	0.983	> 2.5	0.933	> 5	0.932	> 20	0.851	9.38	0.762	6.48	0.947	> 20	0.962	> 4	0.958	> 1.02	0.978	> 2.56	0.959	> 10	0.984	> 10	–	–
LOXIMVI (melanoma, semi-adherent)	0.184	0.00418	0.857	6.94	0.968	> 2.5	0.805	2.2	0.912	> 20	0.188	0.084	0.899	> 16	0.989	> 20	0.895	3.93	0.987	> 1.02	0.717	0.608	0.966	> 10	0.953	> 10	–	–
MZ7-mel (melanoma, adherent)	0.448	0.0229	0.968	> 10.2	0.987	> 2.5	0.985	> 5	0.933	> 20	0.19	0.0712	0.986	> 16	0.986	> 20	0.893	> 4	0.98	> 1.02	0.966	> 2.56	0.985	> 10	0.968	> 10	–	–
NB7 (neuroblastoma, adherent)	0.118	< 0.002	0.349	0.238	0.96	> 2.5	0.929	> 5	0.903	> 20	0.92	> 10	0.826	10.3	0.986	> 20	0.944	> 4	0.981	> 1.02	0.986	> 2.56	0.908	> 10	0.984	> 10	–	–
NCI-H1355 (lung adenocarcinoma, adherent)	0.287	0.00602	0.94	> 10.2	0.889	> 2.5	0.841	> 5	0.968	> 20	0.755	4.85	0.845	> 16	0.978	> 20	0.89	> 4	0.974	> 1.02	0.972	> 2.56	0.972	> 10	0.915	> 10	–	–
RS4-11 (leukaemia, suspension)	0.162	0.00336	0.333	0.23	0.975	> 2.5	0.931	> 5	0.689	4.01	0.79	4.05	0.611	1.97	0.973	> 20	0.976	> 4	0.989	> 1.02	0.865	1.94	0.919	> 10	0.875	8.4	–	–
SCC-15 (head and neck, adherent)	0.341	0.00989	0.812	7.98	–	–	0.893	> 5	0.916	> 20	0.703	2.87	0.815	12.9	0.98	> 20	0.899	> 4	0.977	> 1.02	0.98	> 2.56	0.978	> 10	0.928	> 10	–	–
SKM-1 (haematopoietic neoplasm, suspension)	–	–	–	–	0.96	> 2.5	0.938	> 5	–	–	0.28	0.138	–	–	–	–	0.956	> 4	–	–	–	–	0.982	> 10	0.774	4.35	–	–
SU-DHL-8 (B-cell lymphoma, suspension)	0.231	0.00565	0.256	0.136	0.565	0.232	0.951	> 5	0.827	11.1	0.72	2.5	0.649	2.51	0.97	> 20	0.716	0.971	0.987	> 1.02	0.988	> 2.56	0.981	> 10	0.988	> 10	–	–
TC-71 (Ewing sarcoma, adherent)	0.79	0.186	0.619	1.28	0.963	> 2.5	0.912	> 5	0.724	4.73	0.68	1.8	0.717	3.61	0.987	> 20	0.991	> 4	0.992	> 1.02	0.99	> 2.56	0.964	> 10	0.981	> 10	–	–
TE-10 (oesophagus, adherent)	0.197	0.00414	0.863	8.57	0.951	> 2.5	0.832	3.1	0.929	> 20	0.604	1.2	0.78	6.43	0.988	> 20	0.891	> 4	0.983	> 1.02	0.984	> 2.56	0.981	> 10	0.983	> 10	–	–
TGBC24TKB (biliary tract, adherent)	0.106	< 0.002	0.94	> 10.2	–	–	0.981	> 5	0.772	7.21	0.885	9.75	0.874	13.8	0.988	> 20	0.956	> 4	0.988	> 1.02	0.951	> 2.56	0.982	> 10	–	–	–	–
THP-1 (acute myeloid leukaemia, suspension)	0.436	0.0217	0.516	0.705	0.982	> 2.5	0.964	> 5	0.841	12	0.903	> 10	0.693	3.27	0.986	> 20	0.975	> 4	0.964	> 1.02	0.989	> 2.56	0.99	> 10	0.976	> 10	–	–
